Source: PubChem BioAssay AID1452 (National Center for Advancing Translational Sciences (NCATS), 2008)
About 190 (0.13%) of roughly 150,000 compounds were called active. The shares of active, inactive and inconclusive entries below differ from those in the screen. The call rests on the fitted dose curve; in most records, active means well fitted inhibition curve with a large enough effect; inconclusive means small, poorly fitted or top-dose-only effect; inactive means flat fitted curve, though single readings scatter. Potencies of inconclusive entries are doubtful fits and often do not repeat.

What follows are compounds tested against Polyunsaturated fatty acid lipoxygenase ALOX12 (Homo sapiens) (UniProt P18054) (assay: qHTS Assay for Inhibitors of 12-hLO (12-human lipoxygenase)). Conditions: purified 12-hLO, xylenol orange hydroperoxide absorbance; series mostly up to 57.1 µM.
Method in brief: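 Purified human 12hLO (150 nM), preincubated 15 min with compound, then 40 uM arachidonic acid for 30 min, room temperature, Hepes pH 7.0 with 0.01% Triton X-100. Hydroperoxide detected by ferrous iron/xylenol orange; 573/405 nm absorbance ratio gives reaction progress.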
Further: nearly all actives have a fitted effect of over 55% in size.
Potency means the concentration at half of the fitted maximal effect; tags describe the fitted curve by direction and shape.

UniProt P18054, sequence (P18054 whole entry, looked up): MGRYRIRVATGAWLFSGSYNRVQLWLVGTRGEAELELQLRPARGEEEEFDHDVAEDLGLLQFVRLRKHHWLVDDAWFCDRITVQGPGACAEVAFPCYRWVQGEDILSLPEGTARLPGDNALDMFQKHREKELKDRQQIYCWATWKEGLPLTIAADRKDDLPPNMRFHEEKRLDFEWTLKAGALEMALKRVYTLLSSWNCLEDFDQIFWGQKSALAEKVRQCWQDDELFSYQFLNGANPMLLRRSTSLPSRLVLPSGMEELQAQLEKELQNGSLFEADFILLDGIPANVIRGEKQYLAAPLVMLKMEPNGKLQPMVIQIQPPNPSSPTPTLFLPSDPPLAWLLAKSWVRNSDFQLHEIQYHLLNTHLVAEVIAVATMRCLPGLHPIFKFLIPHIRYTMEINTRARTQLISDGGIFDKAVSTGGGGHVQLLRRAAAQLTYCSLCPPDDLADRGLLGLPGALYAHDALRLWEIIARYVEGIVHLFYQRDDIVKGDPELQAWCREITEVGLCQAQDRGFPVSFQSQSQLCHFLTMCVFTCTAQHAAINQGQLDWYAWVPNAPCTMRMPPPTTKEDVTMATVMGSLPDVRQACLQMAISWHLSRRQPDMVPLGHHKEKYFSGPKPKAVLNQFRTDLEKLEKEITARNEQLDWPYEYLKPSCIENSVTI

Row | SMILES | Potency
1 | COCCN=c1scc(-c2cccs2)n1/N=C/c1ccc(O)c(O)c1O | inconclusive: 1.12 µM [inhibitor, full curve]
2 | O=C(O)c1cc2c(cc1S(=O)(=O)O)[C@H]1[C@@H]([C@H]3[C@H]2[C@@]2(Cl)C(Cl)=C(Cl)[C@]3(Cl)C2(Cl)Cl)[C@]2(Cl)C(Cl)=C(Cl)[C@@]1(Cl)C2(Cl)Cl | inconclusive: 0.794 µM [inhibitor, full curve]
3 | O=C(c1ccc2c(=O)n3c(nc2c1)CCCCC3)N1CCN(C(c2ccccc2)c2ccccc2)CC1 | inactive
4 | CC1(C)Oc2ccc(NC(=O)C3COc4ccccc4O3)cc2O1 (stereo not given) | inactive
5 | CC[C@H](/C=C/[C@@H](C)[C@H]1CC[C@H]2C3CC=C4C[C@@H](O)CC[C@]4(C)C3CC[C@]12C)C(C)C (stereo not given in full) | inactive
6 | CN(C)CCNC=C(C(=O)Nc1ccc(Cl)cc1Cl)C(=O)Nc1ccc(Cl)cc1Cl | inconclusive: 2.51 µM [inhibitor, full curve]
7 | O=C(NCCCO)/C(=C/c1ccco1)NC(=O)c1ccc(Br)o1 | inactive
8 | CCOC(=O)c1ccc(-n2c(N)c(C(=O)NCc3ccco3)sc2=S)cc1 | inconclusive: 31.6 µM [inhibitor, single point]
9 | Cc1c(OCc2ccccc2)cccc1OCc1ccccc1 | inactive
10 | O=C(COC(=O)C1(c2ccc(F)cc2)CCCC1)N1CCOCC1 | inactive
11 | Cc1nc(SCC(=O)c2ccc(F)cc2)n[nH]1 | inconclusive: 39.8 µM [inhibitor, single point]
12 | CCCCN(C)S(=O)(=O)c1c(C)[nH]c(=O)[nH]c1=O | inactive
13 | CCOc1ccccc1-n1c(SCC(N)=O)nnc1-c1ccccc1 | inactive
14 | CCOC(=O)C1=C(Cc2ccc(C)cc2)C(=O)c2ccccc2C1=O | inconclusive: 39.8 µM [inhibitor, single point]
15 | CNC(=S)N1N=C(c2ccc(C)cc2)CC1c1ccc(OC)cc1 (stereo not given) | inconclusive: 39.8 µM [inhibitor, single point]
16 | NNc1nc2ccc(F)cc2s1 | inconclusive: 25.1 µM [inhibitor, single point]
17 | CC(C)(C)c1csc(NC(=O)c2ccc3nccnc3c2)n1 | inactive
18 | Oc1sc(C=Nc2ccc(F)cc2)c2ccccc12 | inconclusive: 28.2 µM [inhibitor, single point]
19 | S=C(NCc1ccccc1)NCc1ccccc1 | inconclusive: 28.2 µM [inhibitor, partial curve]
20 | CCCCS/C(=C(/C#N)C(N)=O)c1cc2c([nH]1)CCCC2 | inconclusive: 31.6 µM [inhibitor, single point]
